Measured values taken from PubChem BioAssay AID1347043 (National Center for Advancing Translational Sciences (NCATS), 2019).
Out of some 76,000 compounds screened, about 1,900 (2.5%) were called active. The inconclusive results got no clear call from the source; some entries with a clear call stand among them for comparison. Calls come from the whole dose curve; as a rule, active = well fitted inhibition curve with a large enough effect; inconclusive = small, poorly fitted or top-dose-only effect; inactive = flat fitted curve, though single readings scatter. Where the call is inconclusive, the potency comes from a doubtful curve fit.

The molecules below were run against Luciferin 4-monooxygenase (Photinus pyralis) (UniProt P08659) (assay: Firefly luciferase inhibition profiling of diverse chemical library using quantitative high-throughput screening). Conditions: purified P. pyralis luciferase, luminescence, biochemical; activity change, negative = inhibition: at 115 µM (top of the series) unless noted.
How it was run: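 Cell-free enzyme assay, 10nM P. pyralis luciferase, luciferin and ATP each at 10uM. Inhibition profiled over a 6-point titration, read as luminescence.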
% is set by controls: 0 for no effect and ±100 for the full control effect; potency is the fitted concentration of half-maximal effect; tags give direction and shape of the fitted curve.
Note: nearly all actives have a fitted effect of over 65% in size.

Sequence of UniProt P08659 (P08659 whole entry, looked up): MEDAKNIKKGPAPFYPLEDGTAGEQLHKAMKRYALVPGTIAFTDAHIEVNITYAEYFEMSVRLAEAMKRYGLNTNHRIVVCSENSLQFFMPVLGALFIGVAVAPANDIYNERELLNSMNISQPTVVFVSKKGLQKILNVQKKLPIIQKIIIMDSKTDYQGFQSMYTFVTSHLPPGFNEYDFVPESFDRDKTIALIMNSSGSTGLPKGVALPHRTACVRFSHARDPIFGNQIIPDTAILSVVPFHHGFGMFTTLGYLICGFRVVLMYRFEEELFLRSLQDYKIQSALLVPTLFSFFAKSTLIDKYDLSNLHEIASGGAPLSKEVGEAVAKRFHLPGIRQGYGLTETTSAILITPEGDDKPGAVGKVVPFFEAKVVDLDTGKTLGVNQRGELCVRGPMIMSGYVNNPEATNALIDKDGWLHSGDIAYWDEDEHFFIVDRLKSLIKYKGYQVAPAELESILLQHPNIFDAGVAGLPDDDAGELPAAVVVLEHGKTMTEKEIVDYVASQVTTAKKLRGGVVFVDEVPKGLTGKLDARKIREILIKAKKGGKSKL

Structure (SMILES) | activity change, negative = inhibition | Potency
Cc1nncn1C1CCN(S(=O)(=O)c2ccc(Cl)cc2)CC1 | inactive: -4.21% | 
COc1ccc(-c2ccc3nc(-c4ccc(SC)cc4)oc3c2)c(OC)c1OC |  | inconclusive: 35.5 µM [inhibitor, partial curve, poor fit]
CC(C)c1ccc(NC(=O)C2CCCCC(=O)N2)cc1 (stereo unspecified) |  | inconclusive: 50.1 µM [inhibitor, partial curve]
CN(C(=O)c1ccccc1)C1CCCc2ccccc21 (stereo unspecified) | inactive: -9.3% [at 172 µM] | 
CN1C[C@@H](NC(=O)c2ccc(C(C)(C)C)cc2)C[C@H]1c1nc(-c2ccncc2)no1 |  | inconclusive: 70.8 µM [inhibitor, partial curve]
Cc1nc(N2CCC(NC(=O)c3cc4ccccc4[nH]3)CC2)cc(C(F)(F)F)n1 |  | inconclusive: 44.7 µM [inhibitor, partial curve]
Cc1ccc(C2Cn3nnc(C(=O)N4CCC(C(=O)NCc5cccc(F)c5)CC4)c3CO2)cc1 (stereo unspecified) |  | active: 35.5 µM
CCc1nc2c(=O)n(CC(=O)NCc3cc(C)ccc3C)nc(C)c2s1 |  | inconclusive: 50.1 µM [inhibitor, partial curve, poor fit]
CC1(CCCCN2CCOCC2)COc2ccc(C(=O)Nc3ccc(Cl)cc3)cc2N1 (stereo unspecified) |  | inconclusive: 44.7 µM [inhibitor, partial curve, poor fit]
O=C(CSc1ccncc1)N1CCCC(O)(CN2CCCC2)C1 (stereo unspecified) |  | inconclusive: 56.2 µM [inhibitor, partial curve]
COc1ccc(OC2CCN(C(C)=O)CC2)c(C(=O)NC(C)c2cn(C)nc2C)c1 (stereo unspecified) |  | inconclusive: 56.2 µM [inhibitor, partial curve]
CS(=O)(=O)N(Cc1cccnc1)C1CN(C(=O)CCC2CCCC2)C1 | inactive: -4.43% | 
CC(=O)Nc1cccc(-c2ncc3c(n2)OCCN(c2ccccc2)C3=O)c1 |  | active: 28.2 µM
CCOC(=O)c1ccc(NC(=O)N2Cc3[nH]cnc3C[C@H]2c2nc(-c3ccc4c(c3)OCO4)no2)cc1 |  | active: 39.8 µM
O=C(NCc1cccc(F)c1)C1CCN(C(=O)c2ncn3c2COC(c2ccccc2)C3)CC1 (stereo unspecified) |  | active: 5.01 µM
COc1ccc(-c2cnc(Nc3ccc(CN4CCN(C)CC4)cc3)c3c2CCO3)cn1 |  | inconclusive: 39.8 µM [inhibitor, partial curve]
O=C1CO[C@H]2CCN(Cc3cccnc3)CC[C@@H]2N1Cc1ccccc1 | inactive: -0.148% [at 172 µM] | 
CCc1cccc(NC(=O)c2cc(-c3ccc[nH]3)n[nH]2)c1 |  | active: 8.91 µM
c1ccc(-c2cc3c(cn2)CN(Cc2c[nH]c4ccccc24)CCN3)cc1 |  | inconclusive: 70.8 µM [inhibitor, partial curve]
CCOc1ccc(-c2cc(C(=O)N3CCCC3c3nncn3C(C)C)[nH]n2)cc1 (stereo unspecified) |  | inconclusive: 39.8 µM [inhibitor, partial curve]
COCCN1CCOC[C@H]2CCN(C(=O)CCC3CCCC3)C[C@H]21 |  | inconclusive: 44.7 µM [inhibitor, partial curve]

Structure (SMILES) | activity change, negative = inhibition | Potency
CCOCc1nc(C2CCCN(C(=O)Nc3cccc(F)c3C)C2)no1 (stereo unspecified) |  | inconclusive: 35.5 µM [inhibitor, partial curve]
CCOC(=O)C1(Cc2ccccc2F)CCCN(C(=O)CCc2c[nH]c3ccccc23)C1 (stereo unspecified) | inactive: -3.04% | 
Cc1ccc(-c2noc([C@@H]3Cc4nc[nH]c4CN3Cc3cccc(C#N)c3)n2)cc1 |  | inconclusive: 56.2 µM [inhibitor, partial curve]
c1ccc(Nc2cc3c(cn2)CN(Cc2ccsc2)CCN3)cc1 |  | active: 10 µM
Cc1ccsc1CN1C[C@@H]2C(C(=O)Nc3ccccc3)=NO[C@@H]2C1 |  | inconclusive: 112 µM [inhibitor, single point]
Cc1ccccc1NC(=O)N1CCC(N2CCCC(C(=O)N3CCCC3)C2)CC1 (stereo unspecified) | inactive: 4.37% | 
C=CCNC(=O)c1ccc(-c2nnc3ccc(NC(=O)C4CCC4)cn23)cc1 |  | inconclusive: 56.2 µM [inhibitor, partial curve, poor fit]
Cc1nnc(-c2cc(C(=O)Nc3cccnc3)ccn2)n1CCc1ccccc1 | inactive: 1.93% [at 172 µM] | 
CC(=O)NC1(C)CN(Cc2ccc(-c3cccc(F)c3)nc2)C1 |  | inconclusive: 70.8 µM [inhibitor, partial curve, poor fit]
Cc1ccc(C2Cn3nnc(C(=O)N4CCN(C(=O)c5cccc(N(C)C)c5)CC4)c3CO2)cc1 (stereo unspecified) |  | inconclusive: 50.1 µM [inhibitor, partial curve, poor fit]
COc1ccc(CCc2nc3nccc(-c4ccc(OC)c(OC)c4)n3n2)cc1 |  | inconclusive: 44.7 µM [inhibitor, partial curve]
O=C(NCCn1cccc1-c1nc(-c2ccc3c(c2)OCO3)no1)c1ccc(Cl)cc1 |  | active: 14.1 µM
CC1CCC(NC(=O)C2CCN(C(=O)c3ncn4c3COC(c3ccc(F)cc3)C4)CC2)CC1 (stereo unspecified) |  | inconclusive: 56.2 µM [inhibitor, partial curve]
O[C@@H]1C[C@@H](c2nc(-c3ccc(F)cc3)no2)N(Cc2cc3ccccc3o2)C1 |  | inconclusive: 50.1 µM [inhibitor, partial curve]
N#Cc1cccc(CN2Cc3[nH]cnc3C[C@H]2c2nc(-c3ccc(OC(F)(F)F)cc3)no2)c1 |  | inconclusive: 50.1 µM [inhibitor, partial curve, poor fit]
COc1ccc(OC)c(NC(=O)c2cc(-c3ccc[nH]3)n[nH]2)c1 |  | inconclusive: 70.8 µM [inhibitor, partial curve, poor fit]
COc1ccc(NC(=O)N2Cc3[nH]cnc3C[C@H]2c2nc(-c3ccc(OC)cc3)no2)cc1 |  | inconclusive: 44.7 µM [inhibitor, partial curve]
Cn1cc(-c2cc3c(ccn3C)c(C(=O)NCCc3cnc[nH]3)n2)cn1 |  | inconclusive: 63.1 µM [inhibitor, full curve]
Cc1cccc(-n2nc(C)c(CCC(=O)NC3CC3)c2Oc2ccc(F)cc2F)c1 | inactive: 4.8% | 
O=C(COc1ccccc1)NC1CCCN(c2cc(-c3ccc(F)cc3)[nH]n2)C1 (stereo unspecified) |  | inconclusive: 44.7 µM [inhibitor, partial curve]
